The values that follow come from patent US20260053898A1 (FORTVITA BIOLOGICS SINGAPORE PTE, published 2026).

The target of test [1] is IL-2Rβγ complex (Fc heterodimer based on Knobs in holes: IL-2Rβ-Fc-Knob and IL-2Rγ-Fc-Hole) (human, biotin tag (avi tag)). As to the kind of experiment: SPR Biacore T200; biotinylated IL-2Rβγ captured on SA chip, molecule in the mobile phase.
In test [2] the target is T1, human PD1 (Catalog No. PD1-H5221, ACRO Biosystem) (human, UniProt Q15116 in part).
T1 construct: Bought; also called antigen
As to the kind of experiment: SPR Biacore T200; molecule captured on Protein A chip, human PD1 in the mobile phase, 1:1 binding model.

T1 sequence (Q15116 25-167 limits assumed): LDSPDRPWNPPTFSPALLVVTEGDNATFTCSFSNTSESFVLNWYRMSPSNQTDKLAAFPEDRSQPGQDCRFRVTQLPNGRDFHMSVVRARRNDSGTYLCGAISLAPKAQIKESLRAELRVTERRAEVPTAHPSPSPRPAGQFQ

B1: 2061 (control molecule PD-1-IL2v, derived from US20180326010A1) (other)
heavy 1: EVQLLESGGGLVQPGGSLRLSCAASGFSFSSYTMSWVRQAPGKGLEWVATISGGGRDIYYPDSVKGRFTISRDNSKNTLYLQMNSLRAEDTAVYYCVLLTGRVYFALDSWGQGTLVTVSSASTKGPSVFPLAPSSKSTSGGTAALGCLVKDYFPEPVTVSWNSGALTSGVHTFPAVLQSSGLYSLSSVVTVPSSSLGTQTYICNVNHKPSNTKVDKKV[human IgG1 Fc with changes not listed]GGGGSGGGGSGGGGSAPASSSTKKTQLQLEHLLLDLQMILNGINNYKNPKLTRMLTAKFAMPKKATELKHLQCLEEELKPLEEVLNGAQSKNFHLRPRDLISNINVIVLELKGSETTFMCEYADETATIVEFLNRWITFAQSIISTLT
heavy 2: EVQLLESGGGLVQPGGSLRLSCAASGFSFSSYTMSWVRQAPGKGLEWVATISGGGRDIYYPDSVKGRFTISRDNSKNTLYLQMNSLRAEDTAVYYCVLLTGRVYFALDSWGQGTLVTVSSASTKGPSVFPLAPSSKSTSGGTAALGCLVKDYFPEPVTVSWNSGALTSGVHTFPAVLQSSGLYSLSSVVTVPSSSLGTQTYICNVNHKPSNTKVDKKVEPKSCDKTHTCPPCPAPEAAGGPSVFLFPPKPKDTLMISRTPEVTCVVVDVSHEDPEVKFNWYVDGVEVHNAKTKPREEQYNSTYRVVSVLTVLHQDWLNGKEYKCKVSNKALPAPIEKTISKAKGQPREPQVCTLPPSRDELTKNQVSLSCAVKGFYPSDIAVEWESNGQPENNYKTTPPVLDSDGSFFLVSKLTVDKSRWQQGNVFSCSVMHEALHNHYTQKSLSLSPGK
light: DIVMTQSPDSLAVSLGERATINCKASESVDTSDNSFIHWYQQKPGQSPKLLIYRSSTLESGVPDRFSGSGSGTDFTLTISSLQAEDVAVYYCQQNYDVPWTFGQGTKVEIKRTVAAPSVFIFPPSDEQLKSGTASVVCLLNNFYPREAKVQWKVDNALQSGNSQESVTEQDSKDSTYSLSSTLTLSKADYEKHKVYACEVTHQGLSSPVTKSFNRGEC
In test [1], B1 displayed a Kd of 1.48 nM, a koff of 0.000134 s⁻¹ and a kon of 90400 M⁻¹ s⁻¹. In test [2], the Kd came to 0.382 nM, the koff was determined as 0.000176 s⁻¹ and the kon turned out to be 460000 M⁻¹ s⁻¹.
